Article doi:10.1101/2024.12.10.627716 (bioRxiv, 2024)

Biological target: the molecule itself
Assay: SEC

Protein	stoichiometry N
PRMT1 H296A, purified recombinant (enzyme) not shown	2
PRMT1 Y280A, purified recombinant (enzyme) not shown	2
